Experimental data as given in patent US7384632B2, “Agonist anti-trk-C monoclonal antibodies” (Genentech, Inc., priority 2000, dated 2008).
One block for each molecule: values may come before it.

Tests used:
rat trkC = rat trkC (Rattus norvegicus, UniProt Q03351); assay: Direct ELISA binding to rat trkC-IgG; settings: for recognition of rat trkC compared with human trkC: FIG. 3, Mabs 1 μg/ml
[1] = test system: cisplatinum induced neuropathy; assay: Cisplatinum induced neuropathy in adult rats, H-wave sensory conduction velocity; assay type: in vivo, rat; settings: 1 mg/kg once a week IV for four weeks, continued cisplatinum
[2] = In vivo half-life and bioavailability, serum levels after IV or subQ injection in rats; settings: rat
pyridoxine neuropathy [3] = assay: Pyridoxine neuropathy in rats, DRG marker mRNA expression by TAQMAN RT-PCR; assay type: in vivo, rat
pyridoxine neuropathy [4] = assay: Pyridoxine neuropathy in rats, M-wave and H-wave electrophysiology; assay type: in vivo, rat; settings: pyridoxine 400 mg/kg twice daily for 8 days; cotreatment
pyridoxine neuropathy [5] = assay: Pyridoxine neuropathy in rats, horizontal ladder proprioceptive test; assay type: in vivo, rat; settings: pyridoxine 400 mg/kg twice daily for 8 days; cotreatment
[6] = pyridoxine 600 mg/kg daily, Mab at either 1 mg/kg or 5 mg/kg

rat trkC, sequence (Q03351 32-429 limits assumed): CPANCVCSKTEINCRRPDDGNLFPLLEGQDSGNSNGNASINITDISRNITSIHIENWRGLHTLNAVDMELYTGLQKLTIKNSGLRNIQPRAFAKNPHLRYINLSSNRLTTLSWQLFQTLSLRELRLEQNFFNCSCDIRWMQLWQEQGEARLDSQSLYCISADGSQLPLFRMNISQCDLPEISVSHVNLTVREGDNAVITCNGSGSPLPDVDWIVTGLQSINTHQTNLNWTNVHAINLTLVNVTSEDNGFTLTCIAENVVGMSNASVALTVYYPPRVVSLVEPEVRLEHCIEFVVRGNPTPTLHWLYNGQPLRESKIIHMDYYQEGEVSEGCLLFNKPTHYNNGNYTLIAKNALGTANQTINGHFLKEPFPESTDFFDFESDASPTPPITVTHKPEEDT

Binds Rat trkC (rat trkC): YES
recognition of rat trkC compared with human trkC (rat trkC): significantly recognized rat trkC
B1: Mab 6.4.1: human IgG2 agonist anti-trkC monoclonal antibody; hybridoma ATCC PTA-2150; heavy chain SEQ ID NO: 46, light chain SEQ ID NO: 53 (antibody, listed as Homo sapiens, V domains shown)
VH: NQVQLQESGPGLVRPSETLSLTCTVSGGSISTYYWNWIRQPAGKGLEWIGRIYTSGSTNYNPSLKSRVTMSVDTSKNQFSLKLSSVTAADTAVYYCARDGGYSNPFDWGQGTLVTVSSC
VL: NDIQMTQSPDSLAVSLGERATINCKSSQSVSYSSNNKNYLAWYQQKPGQPPKLLIYWASTRESGVPDRISGSGSGTDFTLTISSLQAEDVAVYYCQQHYNTPLTFGGGTKVEIKRC
sensory conduction velocity (H-wave) [1]: improvement of this lowered conduction velocity

Binds Rat trkC (rat trkC): YES
B2: Mab 2256: murine IgG1 agonist anti-trkC monoclonal antibody; hybridoma ATCC PTA-2152; heavy chain SEQ ID NO: 44, light chain SEQ ID NO: 51 (antibody, V domains shown)
VH: NQVQLQQPGAELVKPGASVKLSCKASGYTFTSYWMHWVKQRPGQGLEWIGEIYPSNGRTNYNEKFKSKATLTVDKSSSTAYMQLSSLTSEDSAVYYCARKYYYGNSYRSWYFDVWGAGTTLTVSSC
VL: NDIVLTQSPASLAVSLGQRATIS[left out - about 80 residues]FGGGTKLEMKRC
modifications: Murine
recognition of rat trkC compared with human trkC (rat trkC): recognized rat trkC to a significant extent
half-life ([2]; 1 mg/kg IV, 5 mg/kg subQ, serum levels by KIRA): 220 h
bioavailability after subcutaneous administration ([2]; 5 mg/kg subQ vs 1 mg/kg IV): 69%
sensory conduction velocity (H-wave) [1]: improvement of this lowered conduction velocity
trkC expression (pyridoxine neuropathy [3]; pyridoxine 400 mg/kg daily, Mab 5 mg/kg): increases trkC expression over control level
NFL and NSE expression (pyridoxine neuropathy [3]; pyridoxine 400 mg/kg daily, Mab 5 mg/kg subQ weekly): completely blocked this decrease in expression
NFL and NSE expression (pyridoxine neuropathy [3]; pyridoxine 400 mg/kg daily, Mab dose 1 mg/kg): no appreciable effect
NFL and NSE expression (pyridoxine neuropathy [3]; [6]): slight trend towards protection
trkC and calretinin expression (pyridoxine neuropathy [3]; [6]): significantly but not completely blocks the decrease in expression
amplitude of the sensory response (H-wave) compared to the motor response (M-wave) (pyridoxine neuropathy [4]): significantly blocked the pyridoxine-induced decrease in the sensory amplitude
hindpaw placement on horizontal ladder (good placements, footfaults, near footfaults) (pyridoxine neuropathy [5]): smaller decline in good placements and smaller increases in footfaults and near footfaults
